Target: T1, soluble human IL-6R (human, UniProt P08887 20-357)
T1 construct: also called hsIL-6R; recombinant human IL-6R
T1 sequence: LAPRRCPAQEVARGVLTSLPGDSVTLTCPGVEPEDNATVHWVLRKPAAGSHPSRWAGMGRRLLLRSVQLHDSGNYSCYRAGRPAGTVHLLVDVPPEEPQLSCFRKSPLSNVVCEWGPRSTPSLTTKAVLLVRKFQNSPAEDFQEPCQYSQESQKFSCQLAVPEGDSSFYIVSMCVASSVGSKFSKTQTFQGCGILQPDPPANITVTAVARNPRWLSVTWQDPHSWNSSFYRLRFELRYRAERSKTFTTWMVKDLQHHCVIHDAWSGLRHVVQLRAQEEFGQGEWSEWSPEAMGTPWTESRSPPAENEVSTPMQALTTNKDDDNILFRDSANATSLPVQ
Assay: BLI (Octet), in the same way as in Example 3

B1: 20A11-G1m/VL1-40-lamL (other)
heavy: EVQLVESGGGLVQPGGSLRLSCAASGSVFKINVMAWYRQAPGKGRELVAGIISGGSTSYADSVKGRFTISRDNAKNTLYLQMNSLRPEDTAVYYCAFITTESDYDLGRRYWGQGTLVTVSS[gap - human IgG1 constant region]
light: QSVLTQPPSVSGAPGQRVTISCTGSSSNIGAGYDVHWYQQLPGTAPKLLIYGNSNRPSGVPDRFSGSKSGTSASLAITGLQAEDEADYYCQSYDNSLNAVVFGGGTKLTVLGQPKAAPSVTLFPPSSEELQANKATLVCLISDFYPGAVTVAWKADSSPVKAGVETTTPSKQSNNKYAASSYLSLTPEQWKSHRSYSCQVTHEGSTVEKTVAPTECS
notes: IgG antibody-like molecule; VHH 20A11 in place of VH
**Q.** Does B1 bind?
**A.** binds

B2: 20A11-G1m/VL2-14-lamL (other)
heavy: B1 heavy
light: QSALTQPASVSGSPGQSITISCTGTSSDVGGYNYVSWYQQHPGKAPKLMIYEVSNRPSGVSNRFSGSKSGNTASLTISGLQAEDEADYYCSSYRSGYTLVVFGGGTKLTVLGQPKAAPSVTLFPPSSEELQANKATLVCLISDFYPGAVTVAWKADSSPVKAGVETTTPSKQSNNKYAASSYLSLTPEQWKSHRSYSCQVTHEGSTVEKTVAPTECS
notes: as for B1
**Q.** Does B2 bind?
**A.** binds

B3: 20A11-G1m/VL3-21-lamL (other)
heavy: B1 heavy
light: SYVLTQPPSVSVAPGKTARITCGGNNIGSKSVHWYQQKPGQAPVLVIYYDSDRPSGIPERFSGSNSGNTATLTISRVEAGDEADYYCQAWDSSTDVVFGGGTKLTVLGQPKAAPSVTLFPPSSEELQANKATLVCLISDFYPGAVTVAWKADSSPVKAGVETTTPSKQSNNKYAASSYLSLTPEQWKSHRSYSCQVTHEGSTVEKTVAPTECS
notes: as for B1
**Q.** Does B3 bind?
**A.** binds
